{
  "source": "the supplement of paper PMC8728848",
  "binders": {"B1": {"name": "Cohesin-marm-DC-ASGPR-CRD (protein)", "chain": "LDITSHHHHHHDDLDAVRIKVDTVNAKPGDTVRIPVRFSGIPSKGIANCDFVYSYDPNVLEIIEIEPGDIIVDPNPDKSFDTAVYPDRKIIVFLFAEDSGTGAYAITKDGVFATIVAKVKEGAPNGLSVIKFVEVGGFANNDLVEQKTQFFDGGVNVGDTTEPATPTTPVTTPTTTDDLDAASCPINWVEHQGSCYWFSRSGKTWPEAERYCQLENTHLVVINSREEQNFVQAHLGSAYTWMGLSDPEGVWKWVDGTDYSSGFQNWKPGQPDDWQGHGLGGGEDCAHFHPDGRWNDDVCQRSYHWVCEAGLTQASQDSH"}},
  "test_in_all_cases": "glycan array binding signal (z-score within array); higher = stronger binding",
  "conditions_in_all_cases": "glycan notation: IUPAC condensed, linker removed",
  "key": {"[1]": {"biological_target": "Neu5Ac(a2-3)GalNAc", "procedure,_shortened": "(§1)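 Glycan array data were curated from 3228 arrays in the Consortium for Functional Glycomics database and kept only where the protein sequence was available. Glycan names were converted to IUPAC-condensed notation, and columns mapping to the same glycan were averaged. The binding signal is a within-array Z-score, averaged across arrays of the same protein sequence at different concentrations or buffers and across linkers. Negative Z-scores can be read as non-binding.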"}, "[2]": {"biological_target": "Neu5Ac(a2-3)GalNAc(b1-4)GlcNAc", "procedure,_shortened": "as §1"}, "[3]": {"biological_target": "Neu5Ac(a2-3)[GalNAc(b1-4)]Gal(b1-4)Glc", "procedure,_shortened": "as §1"}, "[4]": {"biological_target": "Neu5Ac(a2-3)[GalNAc(b1-4)]Gal(b1-4)GlcNAc", "procedure,_shortened": "as §1"}, "[5]": {"biological_target": "Neu5Ac(a2-3)[GalNAc(b1-4)]Gal(b1-4)GlcNAc(b1-3)GalNAc", "procedure,_shortened": "as §1"}, "[6]": {"biological_target": "Neu5Ac(a2-3)[Neu5Ac(a2-6)]GalNAc", "procedure,_shortened": "as §1"}, "[7]": {"biological_target": "Neu5Ac(a2-6)Gal", "procedure,_shortened": "as §1"}, "[8]": {"biological_target": "Neu5Ac(a2-6)Gal(b1-3)GlcNAc(b1-3)[Gal(b1-4)GlcNAc(b1-6)]Gal(b1-4)Glc", "procedure,_shortened": "as §1"}, "[9]": {"biological_target": "Neu5Ac(a2-6)Gal(b1-4)Glc", "procedure,_shortened": "as §1"}, "[10]": {"biological_target": "Neu5Ac(a2-6)Gal(b1-4)GlcNAc", "procedure,_shortened": "as §1"}, "[11]": {"biological_target": "Neu5Ac(a2-6)Gal(b1-4)GlcNAc(b1-2)Man", "procedure,_shortened": "as §1"}, "[12]": {"biological_target": "Neu5Ac(a2-6)Gal(b1-4)GlcNAc(b1-2)Man(a1-3)Man(b1-4)GlcNAc(b1-4)GlcNAc", "procedure,_shortened": "as §1"}, "[13]": {"biological_target": "Neu5Ac(a2-6)Gal(b1-4)GlcNAc(b1-2)Man(a1-3)[Gal(b1-4)GlcNAc(b1-2)Man(a1-6)]Man(b1-4)GlcNAc(b1-4)GlcNAc", "procedure,_shortened": "as §1"}, "[14]": {"biological_target": "Neu5Ac(a2-6)Gal(b1-4)GlcNAc(b1-2)Man(a1-3)[GlcNAc(b1-2)Man(a1-6)]Man(b1-4)GlcNAc(b1-4)GlcNAc", "procedure,_shortened": "as §1"}, "[15]": {"biological_target": "Neu5Ac(a2-6)Gal(b1-4)GlcNAc(b1-2)Man(a1-3)[GlcNAc(b1-4)][Neu5Ac(a2-6)Gal(b1-4)GlcNAc(b1-2)Man(a1-6)]Man(b1-4)GlcNAc(b1-4)GlcNAc", "procedure,_shortened": "as §1"}, "[16]": {"biological_target": "Neu5Ac(a2-6)Gal(b1-4)GlcNAc(b1-2)Man(a1-3)[Man(a1-6)]Man(b1-4)GlcNAc(b1-4)GlcNAc", "procedure,_shortened": "as §1"}, "[17]": {"biological_target": "Neu5Ac(a2-6)Gal(b1-4)GlcNAc(b1-2)Man(a1-3)[Neu5Ac(a2-3)Gal(b1-4)GlcNAc(b1-2)Man(a1-6)]Man(b1-4)GlcNAc(b1-4)GlcNAc", "procedure,_shortened": "as §1"}, "[18]": {"biological_target": "Neu5Ac(a2-6)Gal(b1-4)GlcNAc(b1-2)Man(a1-3)[Neu5Ac(a2-6)Gal(b1-4)GlcNAc(b1-2)Man(a1-6)]Man(b1-4)GlcNAc(b1-4)GlcNAc", "procedure,_shortened": "as §1"}, "[19]": {"biological_target": "Neu5Ac(a2-6)Gal(b1-4)GlcNAc(b1-2)Man(a1-3)[Neu5Ac(a2-6)Gal(b1-4)GlcNAc(b1-2)Man(a1-6)]Man(b1-4)GlcNAc(b1-4)[Fuc(a1-6)]GlcNAc", "procedure,_shortened": "as §1"}, "[20]": {"biological_target": "Neu5Ac(a2-6)Gal(b1-4)GlcNAc(b1-2)Man(a1-6)Man(b1-4)GlcNAc(b1-4)GlcNAc", "procedure,_shortened": "as §1"}, "[21]": {"biological_target": "Neu5Ac(a2-6)Gal(b1-4)GlcNAc(b1-2)Man(a1-6)[Gal(b1-4)GlcNAc(b1-2)Man(a1-3)]Man(b1-4)GlcNAc(b1-4)GlcNAc", "procedure,_shortened": "as §1"}, "[22]": {"biological_target": "Neu5Ac(a2-6)Gal(b1-4)GlcNAc(b1-2)Man(a1-6)[GlcNAc(b1-2)Man(a1-3)]Man(b1-4)GlcNAc(b1-4)GlcNAc", "procedure,_shortened": "as §1"}, "[23]": {"biological_target": "Neu5Ac(a2-6)Gal(b1-4)GlcNAc(b1-2)Man(a1-6)[Man(a1-3)]Man(b1-4)GlcNAc(b1-4)GlcNAc", "procedure,_shortened": "as §1"}, "[24]": {"biological_target": "Neu5Ac(a2-6)Gal(b1-4)GlcNAc(b1-2)[Neu5Ac(a2-6)Gal(b1-4)GlcNAc(b1-4)]Man(a1-3)[GlcNAc(b1-4)][Neu5Ac(a2-6)Gal(b1-4)GlcNAc(b1-2)[Neu5Ac(a2-6)Gal(b1-4)GlcNAc(b1-6)]Man(a1-6)]Man(b1-4)GlcNAc(b1-4)GlcNAc", "procedure,_shortened": "as §1"}, "[25]": {"biological_target": "Neu5Ac(a2-6)Gal(b1-4)GlcNAc(b1-2)[Neu5Ac(a2-6)Gal(b1-4)GlcNAc(b1-4)]Man(a1-3)[GlcNAc(b1-4)][Neu5Ac(a2-6)Gal(b1-4)GlcNAc(b1-4)Man(a1-6)]Man(b1-4)GlcNAc(b1-4)GlcNAc", "procedure,_shortened": "as §1"}, "[26]": {"biological_target": "Neu5Ac(a2-6)Gal(b1-4)GlcNAc(b1-2)[Neu5Ac(a2-6)Gal(b1-4)GlcNAc(b1-6)]Man(a1-6)[Neu5Ac(a2-6)Gal(b1-4)GlcNAc(b1-2)Man(a1-3)][GlcNAc(b1-4)]Man(b1-4)GlcNAc(b1-4)GlcNAc", "procedure,_shortened": "as §1"}, "[27]": {"biological_target": "Neu5Ac(a2-6)Gal(b1-4)GlcNAc(b1-3)Gal(b1-3)GlcNAc", "procedure,_shortened": "as §1"}, "[28]": {"biological_target": "Neu5Ac(a2-6)Gal(b1-4)GlcNAc(b1-3)Gal(b1-4)GlcNAc", "procedure,_shortened": "as §1"}, "[29]": {"biological_target": "Neu5Ac(a2-6)Gal(b1-4)GlcNAc(b1-3)Gal(b1-4)GlcNAc(b1-2)Man(a1-3)[Neu5Ac(a2-6)Gal(b1-4)GlcNAc(b1-3)Gal(b1-4)GlcNAc(b1-2)Man(a1-6)]GalNAc", "procedure,_shortened": "as §1"}, "[30]": {"biological_target": "Neu5Ac(a2-6)Gal(b1-4)GlcNAc(b1-3)Gal(b1-4)GlcNAc(b1-3)Gal(b1-4)GlcNAc", "procedure,_shortened": "as §1"}, "[31]": {"biological_target": "Neu5Ac(a2-6)Gal(b1-4)GlcNAc(b1-3)Gal(b1-4)GlcNAc(b1-3)Gal(b1-4)GlcNAc(b1-2)Man(a1-3)[Neu5Ac(a2-6)Gal(b1-4)GlcNAc(b1-3)Gal(b1-4)GlcNAc(b1-3)Gal(b1-4)GlcNAc(b1-2)Man(a1-6)]GalNAc", "procedure,_shortened": "as §1"}, "[32]": {"biological_target": "Neu5Ac(a2-6)Gal(b1-4)GlcNAc(b1-3)Gal(b1-4)GlcNAc(b1-3)GalNAc", "procedure,_shortened": "as §1"}, "[33]": {"biological_target": "Neu5Ac(a2-6)Gal(b1-4)GlcNAc(b1-3)Gal(b1-4)GlcNAc(b1-3)[Neu5Ac(a2-6)Gal(b1-4)GlcNAc(b1-3)Gal(b1-4)GlcNAc(b1-6)]GalNAc", "procedure,_shortened": "as §1"}, "[34]": {"biological_target": "Neu5Ac(a2-6)Gal(b1-4)GlcNAc(b1-3)Gal(b1-4)GlcNAc(b1-6)[Gal(b1-3)]GalNAc", "procedure,_shortened": "as §1"}, "[35]": {"biological_target": "Neu5Ac(a2-6)Gal(b1-4)GlcNAc(b1-3)Gal(b1-4)[Fuc(a1-3)]GlcNAc(b1-3)Gal(b1-4)[Fuc(a1-3)]GlcNAc", "procedure,_shortened": "as §1"}, "[36]": {"biological_target": "Neu5Ac(a2-6)Gal(b1-4)GlcNAc(b1-3)GalNAc", "procedure,_shortened": "as §1"}, "[37]": {"biological_target": "Neu5Ac(a2-6)Gal(b1-4)GlcNAc(b1-3)[Neu5Ac(a2-6)Gal(b1-4)GlcNAc(b1-6)]GalNAc", "procedure,_shortened": "as §1"}},
  "note": "The other results are listed elsewhere or left out.",
  "data": [
    {"binder": "B1", "values": [
      {"measurement": "glycan array binding signal (z-score)", "setting": "[1]", "value": -0.435},
      {"measurement": "glycan array binding signal (z-score)", "setting": "[2]", "value": -0.447},
      {"measurement": "glycan array binding signal (z-score)", "setting": "[3]", "value": 2.68},
      {"measurement": "glycan array binding signal (z-score)", "setting": "[4]", "value": 2.36},
      {"measurement": "glycan array binding signal (z-score)", "setting": "[5]", "value": 2.56},
      {"measurement": "glycan array binding signal (z-score)", "setting": "[6]", "value": -0.395},
      {"measurement": "glycan array binding signal (z-score)", "setting": "[7]", "value": -0.375},
      {"measurement": "glycan array binding signal (z-score)", "setting": "[8]", "value": -0.452},
      {"measurement": "glycan array binding signal (z-score)", "setting": "[9]", "value": -0.421},
      {"measurement": "glycan array binding signal (z-score)", "setting": "[10]", "value": -0.453},
      {"measurement": "glycan array binding signal (z-score)", "setting": "[11]", "value": -0.448},
      {"measurement": "glycan array binding signal (z-score)", "setting": "[12]", "value": -0.442},
      {"measurement": "glycan array binding signal (z-score)", "setting": "[13]", "value": -0.392},
      {"measurement": "glycan array binding signal (z-score)", "setting": "[14]", "value": -0.448},
      {"measurement": "glycan array binding signal (z-score)", "setting": "[15]", "value": -0.445},
      {"measurement": "glycan array binding signal (z-score)", "setting": "[16]", "value": -0.446},
      {"measurement": "glycan array binding signal (z-score)", "setting": "[17]", "value": -0.43},
      {"measurement": "glycan array binding signal (z-score)", "setting": "[18]", "value": -0.424},
      {"measurement": "glycan array binding signal (z-score)", "setting": "[19]", "value": -0.451},
      {"measurement": "glycan array binding signal (z-score)", "setting": "[20]", "value": -0.446},
      {"measurement": "glycan array binding signal (z-score)", "setting": "[21]", "value": -0.425},
      {"measurement": "glycan array binding signal (z-score)", "setting": "[22]", "value": -0.456},
      {"measurement": "glycan array binding signal (z-score)", "setting": "[23]", "value": -0.447},
      {"measurement": "glycan array binding signal (z-score)", "setting": "[24]", "value": -0.426},
      {"measurement": "glycan array binding signal (z-score)", "setting": "[25]", "value": -0.368},
      {"measurement": "glycan array binding signal (z-score)", "setting": "[26]", "value": -0.442},
      {"measurement": "glycan array binding signal (z-score)", "setting": "[27]", "value": -0.41},
      {"measurement": "glycan array binding signal (z-score)", "setting": "[28]", "value": -0.46},
      {"measurement": "glycan array binding signal (z-score)", "setting": "[29]", "value": -0.038},
      {"measurement": "glycan array binding signal (z-score)", "setting": "[30]", "value": -0.384},
      {"measurement": "glycan array binding signal (z-score)", "setting": "[31]", "value": 0.072},
      {"measurement": "glycan array binding signal (z-score)", "setting": "[32]", "value": -0.378},
      {"measurement": "glycan array binding signal (z-score)", "setting": "[33]", "value": -0.299},
      {"measurement": "glycan array binding signal (z-score)", "setting": "[34]", "value": -0.4},
      {"measurement": "glycan array binding signal (z-score)", "setting": "[35]", "value": -0.346},
      {"measurement": "glycan array binding signal (z-score)", "setting": "[36]", "value": 2.19},
      {"measurement": "glycan array binding signal (z-score)", "setting": "[37]", "value": -0.233}
    ]}
  ]
}
